This note sets out measurements from PubChem BioAssay (NCI).

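Cells were grown in 96-well plates and exposed to each compound for 48 hours at five concentrations; endpoints were interpolated linearly between bracketing concentrations, or set to the highest concentration if not reached. Abbreviation: GI50, concentration required for 50% inhibition of growth. The concentration for full growth arrest is given as TGI.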

In this experiment the test system is NCI-H322M lung. Nature of the experiment: NCI-60 cell line screen, 48 h.
`CC(=O)NC1C(O)CC(OCCCSCCN)(C(=O)O)OC1C(O)C(O)CO` (configuration not stated): the TGI was more than 100 µM.
On the same count and under the same terms, with `O=C1NC(=O)C2C1c1[nH]c3ccccc3c1C1CCCC12` (configuration not stated) the figure was more than 100 µM.
Still for that read-out and setting: the result for `Oc1cccc2cc(Cl)cnc12` reads more than 100 µM; that for `c1ccc2c(c1)Sc1ccccc1N2CC1CN2CCC1CC2` (configuration not stated), 23.7 µM; that for `CN(C)c1ccc(/C=C(/C(=O)O)c2csc(-c3nc(/C(=C\c4ccc(N(C)C)cc4)C(=O)O)cs3)n2)cc1`, more than 100 µM.
Same read-out and setting: with `Cc1cc(C)n(-c2nc3ccccc3c(=O)[nH]2)n1` the figure was 32.6 µM.
Compound `COc1cc(C2c3cc4c(cc3[C@@H](NCCCN3CCCC3=O)C3COC(=O)[C@H]23)OCO4)cc(OC)c1O` (some centres not stated) yielded a TGI of more than 100 µM.
`O=C(c1c(Cl)cc(Cl)cc1Cl)N(Cc1cccnc1)C(=S)N(Cc1cccnc1)C(=O)c1c(Cl)cc(Cl)cc1Cl` came in with a TGI of 25.1 µM.
Compound `COc1ccc2c(c1)-c1c(c3cc(OC)ccc3n1CCN1CCOCC1)CC2` showed a TGI of more than 100 µM.
Still for that read-out and setting: the result for `CC(C)=CCc1ccc2[nH]c3c(c2c1)C(=O)C(=O)C(C)=C3C(O)C(C)O` (configuration not stated) reads 32.7 µM.
For `COc1cc(C(=O)/C=C/c2cc(-c3cc(OC)c(OC)c(OC)c3)n[nH]2)cc(OC)c1OC`, the GI50 is 2 µM and the TGI came to 4.86 µM.
In turn, `O=[N+]([O-])c1ccc(/C(=C\c2ccccc2)Cn2ccnc2)cc1` had a TGI of more than 100 µM.
Compound `CO[C@]12C#CC=CC#C[C@@H](O)[C@]3(CCC1)O[C@@]23c1cccc(O)c1` displayed a TGI of more than 100 µM.
The same measure, in the same setting: the result for `CSC1(C)CC2C(CC1N1CCOCC1)C2(C)C` (configuration not stated) reads more than 100 µM; that for `CC(O)C(C(=O)O)N(CC1(O)OCC(O)C(O)C1O)N=O` (configuration not stated), more than 100 µM.
Consider `COc1ccc2nc(NC(=O)COc3cc(/C=C\c4cc(OC)c(OC)c(OC)c4)ccc3OC)sc2c1`, for which the GI50 was more than 100 µM and the TGI is more than 100 µM.
For `C=C1CC(c2ccc(O)c(OC)c2)Oc2c(OC)cccc21` (configuration not stated), the TGI was more than 100 µM.
Still for that read-out and setting: with `CSC1C=C(C(C)C)CCC1(C)SC` (configuration not stated) the figure was 64.5 µM; with `C=CCN1C(=O)C(=O)N(CC=C)C(=O)C1=O`, more than 100 µM; with `OC(c1ccc(F)cc1)(c1ccc(F)cc1)C1CC1`, more than 100 µM.
As for `O=[N+]([O-])[O][Sn]([O][Sn]([O][N+](=O)[O-])([c]1ccccc1)[c]1ccccc1)([c]1ccccc1)[c]1ccccc1`, the GI50 was more than 100 µM and the TGI was more than 100 µM.
In turn, `O=C1C=Cc2c(-c3ccccc3)oc3cccc1c23` yielded a TGI of more than 100 µM.
As to `CCOC(OC1=CCCC1)C(C)[Se]c1ccccc1` (configuration not stated), the TGI is more than 100 µM.
Still for that read-out and setting: with `C=C(CC[C@@H](C)[C@H]1CC[C@H]2[C@@H]3C[C@@H](O)[C@H]4C[C@@H](O)CC[C@]4(CO)[C@H]3CC[C@]12C)C(C)C` the figure was 12 µM.
In the case of `Nc1c(C(=O)Nc2ccccc2)sc2nc3c(cc12)C(O)CCC3` (configuration not stated), the GI50 was 0.513 µM and the TGI was more than 100 µM.
Consider `O=S(=O)(/N=C(\NO)Nc1ccc(Cl)cc1)c1cc2ccccc2o1`, for which the TGI turned out to be 56.3 µM.
Consider `CC1(SCC(N)C(=O)O)CC(=O)NC1=O` (configuration not stated), for which the TGI was more than 100 µM.
On the same count and under the same terms, the result for `COc1cc(C2CC(C)(N3CCCC3)Oc3cc4c(cc32)OCO4)cc(OC)c1OC` (configuration not stated) reads more than 100 µM.
`CCC(=O)Oc1cc(/C=C/C(=O)O[C@H]2C[C@H]3CN4CCc5c([nH]c6cc(OC)ccc56)[C@@H]4C[C@@H]3[C@@H](C(=O)OC)[C@@H]2OC)ccc1OC`: the GI50 was 97.3 µM and the TGI was more than 100 µM.
On to `Cn1cc(-c2ccc(-c3cn(C)c4ncccc34)[nH]2)c2cccnc21`, for which the GI50 is 21 µM and the TGI was more than 100 µM.
For `O=c1c2sc3ccccc3c2nnn1-c1ccc(F)c(Cl)c1`, in that order: 6.57 µM and more than 100 µM.
Regarding `COC(=O)[C@@H](NC1(c2ccccc2)c2ccccc2-c2ccccc21)[C@H](OC(=O)[C@H]1CCCN1S(=O)(=O)c1ccccc1)C(=O)OC`, the TGI is more than 100 µM.
On to `Cc1c(-c2ccc(O)c(O)c2)oc(=O)c2c(O)cc(O)cc12`, for which the GI50 was 16.7 µM and the TGI was found to be 49.1 µM.
In the case of `COc1ccc(NC(=O)c2sc3nc(C)c(C(=O)/C=C/c4ccccc4)cc3c2N)cc1`, the GI50 is 1.49 µM and the TGI is 5.84 µM.
Compound `N=C(c1ccc(-c2cn3cc(C(=N)N4CCCC4)ccc3n2)cc1)N1CCCC1` showed a TGI of more than 100 µM.
Consider `N#Cc1c(C#N)c(SSc2c(C#N)c(C#N)c(N)n2-c2ccc(F)cc2)n(-c2ccc(F)cc2)c1N`, for which the TGI was 31.2 µM.
Same read-out and setting: with `COc1nc(NC2OCC(O)C(O)C2O)c(NC2OCC(O)C(O)C2O)c(=O)n1C` (configuration not stated) the figure was more than 100 µM.
Consider `COc1cc2c3c(n(CCCN(C)C)c(=O)c2cc1OC)-c1cc2c(cc1C3=O)OCO2`, for which the GI50 is 1.26 µM and the TGI was 2.66 µM.
`c1ccc(C2=NOC3COc4ccccc4OCC23)cc1` (configuration not stated) showed a TGI of more than 100 µM.
Same read-out and setting: the result for `CC1=Nn2c(nnc2-c2ccccc2Cl)NC(C)(C)C1` reads more than 100 µM.
For `Cc1ccc2nc3ccccc3c(NCc3ccccc3)c2c1`, the GI50 was 2.23 µM and the TGI was 9.49 µM.
For `CO/N=C(\COc1ccc2c(=O)cc(-c3ccccc3)oc2c1)c1ccc(F)cc1`, in that order: more than 100 µM and more than 100 µM.
On the same counts, the results for `NCCOc1ncccc1/C=C1\C2C=CC=CC2C2C=CC(F)=CC12` (configuration not stated) are 1.64 µM and 3.61 µM.
On the same counts, the results for `O=C1N=C(c2c(-c3[nH]c(=O)c4ccc(Br)cc4c3O)c(O)c3ccccc3c2O)C(=O)c2cc(Br)ccc21` are 0.529 µM and more than 16.7 µM.
Regarding `CCN(C(=O)N[C@@H](Cc1ccccc1)C(=O)N[C@@H](CC(C)C)C(=O)NC)c1ccccc1`, the TGI was more than 100 µM.
The same measure, in the same setting: with `CC[C@H](CC[C@@H](C)[C@H]1CC[C@H]2[C@@H]3CC=C4C[C@@H](O)CC[C@]4(C)[C@H]3CC[C@]12C)C(C)C` the figure was more than 100 µM; with `COc1cc2c(cc1OCCCCOc1cc3nc(C)nc(Cl)c3cc1OC)N=C[C@@H]1CCCN1C2=O`, 4.65 µM.
The same measure, in the same setting: with `CC(=O)N(C)C=C1C(=O)N(C)C(=O)N(C)C1=O` the figure was more than 100 µM.
Still for that read-out and setting: the result for `CC(=O)Oc1cc2c[n+](C)c3c4cc(OC(C)=O)c(OC(C)=O)cc4ccc3c2cc1OC(C)=O` reads more than 46.1 µM.
As for `NCCSCC(N)C(=O)O` (configuration not stated), the GI50 was more than 497 µM and the TGI is more than 497 µM.
`O=S(=O)(Cc1nc2ccccc2s1)c1nc2ccccc2s1` returned a TGI of 31.4 µM.
`COC(=O)CCCc1ccc2c(c1)CC1(Cc3ccccc3C1)C2` gave a TGI of more than 100 µM.
The same measure, in the same setting: the result for `Cn1c(=O)n2c(=O)n(C)c(=O)n2c1=O` reads more than 100 µM; that for `O=C(O)c1cccc(CN2CCCCC2)c1`, more than 100 µM.
For `COc1ccc(C(=O)C2C(C#N)C(C#N)C3C=Cc4ccccc4N32)cc1` (configuration not stated), the GI50 was 6.31 µM and the TGI is more than 100 µM.
For `O=C(CCl)Nc1ccc2c(Nc3cc(O)ccc3Cl)ncnc2c1`, in that order: 5.19 µM and 10.2 µM.
With `COc1ccc(OC)c(Nc2nc3ccccc3c3c2-c2ccc(OC)cc2C3=O)c1`, the GI50 was more than 100 µM and the TGI was more than 100 µM.
For the compound `CCOC(=O)C(=O)Nc1cccc(Cl)c1C`, the TGI was more than 100 µM.
On to `CC(=O)OCCOCn1cc(C=O)c2ccccc21`, for which the TGI was more than 100 µM.
Same read-out and setting: the result for `O=P(Nc1ccccc1)(Oc1ccccc1)N1CCN(c2ccccc2)CC1` (configuration not stated) reads more than 100 µM; that for `Cc1nnc2sc(Cc3cnc(N)s3)nn12`, more than 100 µM; that for `N#CC1Sc2ccccc2-n2cccc21` (configuration not stated), more than 100 µM.
The same measure, in the same setting: with `CC(O)C1(CNc2cc(Cl)nc(N)n2)CCCC1` (configuration not stated) the figure was more than 100 µM; with `CC(C)(C)OC(=O)CCC1NC(=O)[C@@H]2Cc3c([nH]c4ccccc34)C(C3CCCCC3)N2C1=O` (some centres not stated), more than 100 µM; with `C=C[C@H]1CN2CCc3c([nH]c4cc(O)ccc34)[C@@H]2C[C@@H]1C[C@H]1c2[nH]c3ccccc3c2CCN1C`, 11.2 µM.
Still for that read-out and setting: the result for `CC1(C)CSCC(C)(C)C(=N/N)/C1=N\N` reads more than 100 µM; that for `O=C(Cc1nc2cccnc2nc1/C=C(\O)c1ccccc1)c1ccccc1`, more than 100 µM; that for `COC(=O)[C@H](Cc1c[nH]c2ccccc12)NC(=O)OCC1OC(n2cc(C)c(=O)[nH]c2=O)CC1N=[N+]=[N-]` (some centres not stated), more than 100 µM.
With `COc1cc(/C=C2\CCC(C)C3=C(c4cc(OC)c(OC)c(OC)c4)C(C#N)=C(N)OC32)cc(OC)c1OC` (configuration not stated), the TGI is 99.7 µM.
For `O=c1[nH]c2ccccc2nc1CBr`, the TGI was found to be 62.1 µM.
Compound `Cn1ncc(NCCn2cnc3c2c(=O)n(C)c(=O)n3C)c(Cl)c1=O` returned a TGI of more than 100 µM.
Take `CC12CC[C@@H]3c4cc5c(cc4CC[C@H]3[C@@H]1CCC2O)oc1cc(F)ccc15` (some centres not stated): the GI50 is 16.2 µM and the TGI was 48.2 µM.
In turn, `Cc1ccc(S(=O)(=O)N2CCCN(S(=O)(=O)c3ccc(C)cc3)CC2)cc1` had a TGI of more than 100 µM.
Same read-out and setting: the result for `O=C1c2ccccc2C2(O)Nc3c(ccc4ccccc34)C12O` (configuration not stated) reads more than 100 µM.
Still for that read-out and setting: the result for `CCCCCCCCCC1CC(=O)Oc2cccc(O)c21` (configuration not stated) reads more than 81.7 µM.
In the case of `CCCCCCC/C(=N\N=C(N)N)c1ccc(O)cc1`, the GI50 was 2.67 µM and the TGI was found to be 9.08 µM.
Take `COc1ccc(C(=O)NCCNc2nccc(-c3c(-c4ccc(F)cc4)nc4sccn34)n2)cc1`: the GI50 is 5.26 µM and the TGI was determined as 44.1 µM.
Take `O=C(N/N=C\c1cc(Cl)ccc1O)c1ccncc1`: the GI50 is 3.54 µM and the TGI is more than 100 µM.
As to `O=c1ccc2ccc(O)c3c4c(=O)ccc5ccc(O)c(c1c23)c54`, the TGI is 10.9 µM.
`CC(C)(C)c1ccc(-n2c3nc(=O)n(-c4ccccc4C(F)(F)F)c(=O)c-3cc3ccccc32)cc1`: the TGI came out at 67.8 µM.
On the same count and under the same terms, the result for `CC(C)(C)c1cc(COc2cc(COc3ccc(-c4c5c(nc6c4CCc4ccc(-c7c8ccccc8nc8ccccc78)cc4-6)-c4cc(-c6c7ccccc7nc7ccccc67)ccc4CC5)cc3)cc(OCc3cc(C(C)(C)C)cc(C(C)(C)C)c3)c2)cc(C(C)(C)C)c1` reads more than 100 µM; that for `Cc1cc(Br)ccc1NC1=CC(=O)C(=O)c2ccccc21`, more than 100 µM.
On the same count and under the same terms, with `C=C1C(=O)C2=C[C@H]1C[C@H](O)C(=O)[C@]1(C)CCCC(C)(C)[C@H]1C[C@H]2O` the figure was 29.7 µM.
`CCOC1c2cc(OC)c(OC)cc2-c2ccc3ccccc3c2N1C` (configuration not stated): the TGI worked out at 70.4 µM.
With `CCCCCCC(C)c1ccc2c(c1)C(=O)c1nc3ccncc3c(=O)n1-2` (configuration not stated), the TGI is more than 31.6 µM.
